Structures are written as SMILES. Screen size: about 150,000 compounds; about 540 (0.36%) showed an effect of 50% or more. The list shows a part of the results.

The subject of this assay is Plasmodium falciparum. Kind of assay: Primary screen in NF54 nanoGlo assay, in single point, at 2uM, 72h; a lower Z score goes with more inhibition. In kind it is functional, Erythrocyte. The following applies: timepoint 72 hour.
Take `O=C(Nc1nc2ccc(F)cc2s1)c1ccc(OCc2ccccc2)cc1`: the “% Inhibition” value is -2% and the Z score is listed as 0.33.

Consider `COc1ccc(CCC(=O)NC2CCN(c3cc4c(nn3)CCCC4)CC2)cc1`, for which the “% Inhibition” value is given as -21% and the Z score turned out to be 3.67.

For the molecule `CN(Cc1nc(C(C)(C)C)no1)C[C@@H]1CCCO1`, the “% Inhibition” value is reported as -2% and the Z score is on record as 0.22.

Consider `CS(=O)(=O)N1CCC(C(=O)N[C@H]2CC3(CCCCC3)Oc3ccccc32)CC1`, for which the “% Inhibition” value was -6% and the Z score was 1.09.

As for `Nc1nccnc1C(=O)N1CCC(c2nc3ccccc3s2)CC1`, the “% Inhibition” value is on record as -14% and the Z score is 1.99.

In the case of `O=C1CCCN1CC[C@H]1CN(C(=O)COCc2cccnc2)c2ccccc21`, the “% Inhibition” value is -8% and the Z score came to 1.52.

With `COc1cccc(CN2CCOc3ccc(CCC(=O)NCC4CC4)cc3C2)c1`, the “% Inhibition” value was -5% and the Z score turned out to be 0.56.

Turning to `CC1CCCC(NC(=O)CNC(=O)C2CCCCC2)C1C` (stereo unspecified), the “% Inhibition” value was -7% and the Z score turned out to be 0.92.

Regarding `CCOC(=O)CC1NCC(C)NC1=O` (stereo unspecified), the “% Inhibition” value is given as -8% and the Z score was 1.05.

On to `CC(=O)N1C[C@H]2CC[C@@H](C1)N(C(=O)C(C)(C)c1ccccc1)C2`, for which the “% Inhibition” value was -11% and the Z score was determined as 1.39.

In the case of `CC(C)c1nc([C@H](C)NC(=O)CN(C)C2CC2)cs1`, the “% Inhibition” value is 6% and the Z score was -0.57.

As to `CCOC(=O)Cc1cnc(NC(=O)[C@H]2CCN(Cc3ccccc3)C2)s1`, the “% Inhibition” value is recorded as -15% and the Z score was determined as 2.25.

Turning to `O=C(NC[C@@H](c1ccco1)n1cccn1)c1ccoc1`, the “% Inhibition” value is reported as 11% and the Z score is on record as -1.52.

Turning to `Cc1c(C(=O)NCc2nccn2C)cnn1C`, the “% Inhibition” value is given as -8% and the Z score is listed as 1.12.

Regarding `Cc1ccc(-c2cc3n(n2)CCCN(C(=O)COc2ccc(Cl)cc2)C3)cc1`, the “% Inhibition” value was -6% and the Z score is listed as 0.97.

For the molecule `Cc1ccc(S(=O)(=O)NC(c2ccc3c(c2)CCO3)[C@H]2C[C@@H](O)C2)s1` (stereo partly specified), the “% Inhibition” value is given as -4% and the Z score came out at 0.61.

In the case of `O=C(c1nc(C2CC2)nn1-c1cccc2cccnc12)N1CCCCCC1`, the “% Inhibition” value is on record as 6% and the Z score was -1.02.

With `CCOC(=O)N1CCN(C(=O)CN2Cc3cc(OC)ccc3O[C@@H](CC)C2)CC1`, the “% Inhibition” value is -2% and the Z score came to 0.3.

`CC(C)n1ncc2cc(CNCC3(CO)CCC3)cnc21`: the “% Inhibition” value is listed as -2% and the Z score was determined as 0.16.

In the case of `C[C@@H](c1nc(CC2CCN(C)CC2)no1)n1cnc2ccccc2c1=O`, the “% Inhibition” value is -5% and the Z score is given as 0.54.

As for `Cc1cc(S(=O)(=O)NCc2cncn2CC(C)C)c(C)s1`, the “% Inhibition” value is on record as -7% and the Z score is given as 1.35.

In the case of `CNC(=O)Cn1cc(NCC2(C)CN(C(=O)OC(C)(C)C)C2)cn1`, the “% Inhibition” value is reported as -6% and the Z score is 1.01.

Take `CCOc1ccccc1NC(=O)N1C[C@H](Oc2ccccc2)C[C@@H]1C(=O)N1CCOCC1`: the “% Inhibition” value is on record as 6% and the Z score is -0.83.

With `O=C(CN[C@H](c1ccccc1)c1cccs1)Nc1ccc2c(c1)OCO2`, the “% Inhibition” value is listed as -7% and the Z score was 0.9.

As to `Cc1noc(C)c1CO[C@H]1COCC[C@@H]1Nc1ccc2ccccc2n1`, the “% Inhibition” value is recorded as -17% and the Z score worked out at 2.56.

In the case of `Cc1cc(Cl)ccc1OCC(=O)Nc1nnc(C2CC2)s1`, the “% Inhibition” value was determined as 2% and the Z score is listed as -0.24.

For `CCOC(=O)[C@H](C)OC(=O)c1cccc(CN(C)C)c1`, the “% Inhibition” value turned out to be 2% and the Z score is -0.19.

Take `CN1CCCC1C1CCCN1C(=O)c1cccn1C` (stereo unspecified): the “% Inhibition” value is reported as -1% and the Z score was determined as 0.1.

In the case of `COc1ccc(CN(C)S(=O)(=O)N(C)C(C)C)cc1`, the “% Inhibition” value stood at 0% and the Z score is listed as -0.02.

For `C[C@@](Cc1ccccc1)(NC(=O)CCc1cscn1)C(=O)O`, the “% Inhibition” value is -13% and the Z score amounted to 1.33.

Take `CN1C[C@@H](N)C[C@H]1C(=O)N1CCc2onc(-c3ccc(-c4ccccc4)cc3)c2C1`: the “% Inhibition” value is -4% and the Z score is given as 0.52.

For `Cc1cnn(-c2ccc(NC(=O)N3CCN(C4CC4)CC3)cc2F)c1`, the “% Inhibition” value was -8% and the Z score came to 0.89.

In the case of `COCc1nsc(N2CCC(c3ccccc3)CC2C)n1` (stereo unspecified), the “% Inhibition” value came out at 39% and the Z score is reported as -5.61.

`CCCCCNC(=O)N[C@@]1(C)CCS(=O)(=O)C1`: the “% Inhibition” value is given as -2% and the Z score is listed as 0.2.

Regarding `Cc1ccc(C(N)=O)c(N2CCC(n3cc(C4CCCC4)nn3)CC2)n1`, the “% Inhibition” value is -28% and the Z score is given as 2.51.

For `CCOC(=O)[C@H](CCc1ccccc1)N[C@H](C)C(=O)N1Cc2ccccc2C[C@H]1C(=O)O`, the “% Inhibition” value is on record as -10% and the Z score was 1.38.

On to `CCN(CC)S(=O)(=O)c1ccc(C(=O)N(CC(C)C)CC(C)C)cc1`, for which the “% Inhibition” value is 10% and the Z score was -1.61.

Regarding `COC(C(=O)N1CCOc2c(Cl)cc(Br)cc21)C1CCOC1` (stereo unspecified), the “% Inhibition” value is on record as -1% and the Z score is listed as 0.17.

`CCN(C)C(=O)c1cccc(Nc2c(Oc3ccc4c(c3)CCC4)cnn(-c3ccc(OC)cc3)c2=O)c1`: the “% Inhibition” value is 3% and the Z score is -0.48.

As to `CCOc1nc2c(c(C)nn2-c2cccc(F)c2)c(C)c1CCC(=O)NCc1cccc(Cl)c1`, the “% Inhibition” value is given as 12% and the Z score was -1.76.

`Cc1nnc(COc2ccc3c(c2)CCNC3=O)o1`: the “% Inhibition” value is recorded as -5% and the Z score was found to be 1.03.

As for `OC(COCC1CCCO1)CN1CCN(c2ncccn2)CC1` (stereo unspecified), the “% Inhibition” value is reported as -4% and the Z score is on record as 0.45.

With `O=C(c1cnccn1)N1CC[C@H](c2ccnc(-c3ccncc3)c2)C1`, the “% Inhibition” value was 13% and the Z score was -1.67.

One may read the % Inhibition as the change of the read-out against control, counted positive when it falls.
